# Where “and” joins values, the source holds several entries; their conditions need not be identical. Equal entries are not always repeated. The source holds several records for some structures; these can differ, active in one and inactive in another. Calls of active or inactive are those of the source. Unless noted, the call rests on the fitted dose curve; in most records, active means well fitted curve in the direction sought with a large enough effect in the repeat runs; inconclusive means weak or mixed curves; inactive means no such curve, though single readings can be large; an effect the other way counts as inactive or inconclusive.
# Columns and labels:
# [1] = qHTS assay for small molecule agonists of the p53 signaling pathway (AID 651631; calls by dose curve; further: nearly all actives have a fitted effect of over 15% in size; further: potency means the concentration at half of the fitted maximal effect; on activation: on the % scale 0 is the no-effect control and ±100 the full control effect); conditions: HCT-116 p53RE-bla reporter, beta-lactamase FRET ratio, 16 h; activation: at 73.3 µM (top of the series) unless noted
# How it was run: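 Readout was fluorescence from the LiveBLAzer FRET substrate, applied for 2 h at room temperature after 16 h compound exposure at 37 °C. Cells were the p53RE-bla HCT-116 line, with beta-lactamase driven by p53 response elements.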
# [2] = qHTS assay for small molecule disruptors of the mitochondrial membrane potential - cell viability (AID 720634; calls by dose curve; further: potency means the concentration at half of the fitted maximal effect; nearly all actives have a fitted effect of over 20% in size)
# How it was run: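 HepG2 cells seeded overnight at 37 C, then exposed to compound or DMSO for 1 hr at 37 C, 5% CO2. m-MPI dye added, then CellTiter-Glo for 30 min at room temperature; viability read as ATP luminescence.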
# [3] = qHTS assay for small molecule disruptors of the mitochondrial membrane potential (AID 720635); conditions: HepG2 mitochondrial membrane potential, Mito-MPS dye ratio; ratio activity, negative = MMP loss: at 83.2 µM (top of the series) unless noted; further: potency means the concentration at half of the fitted maximal effect; on ratio activity, negative = MMP loss: on the % scale 0 is the no-effect control and ±100 the full control effect
# How it was run: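 HepG2 cells exposed to compound 1 hr at 37C, then Mito-MPS dye 30 min. Ratio read of aggregate (540/590 nm) versus monomer (490/535 nm) fluorescence.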
# [4] = molecular target: Glucocorticoid receptor (Homo sapiens) (UniProt P04150); assay: qHTS assay to identify small molecule agonists of the glucocorticoid receptor (GR) signaling pathway (AID 720691; active means well fitted activation curve with a large enough effect in the signal ratio in the repeat runs, not every such curve was filed as active; inconclusive means weak or mixed curves, or effect the other way; inactive means no such curve, though single readings can be large or run the other way; the % refers to the signal ratio; further: potency means the concentration at half of the fitted maximal effect); conditions: GR-bla HeLa, beta-lactamase reporter ratio, 18 h; activation: at 62.4 µM (top of the series) unless noted
# UniProt P04150, sequence (P04150 whole entry, looked up): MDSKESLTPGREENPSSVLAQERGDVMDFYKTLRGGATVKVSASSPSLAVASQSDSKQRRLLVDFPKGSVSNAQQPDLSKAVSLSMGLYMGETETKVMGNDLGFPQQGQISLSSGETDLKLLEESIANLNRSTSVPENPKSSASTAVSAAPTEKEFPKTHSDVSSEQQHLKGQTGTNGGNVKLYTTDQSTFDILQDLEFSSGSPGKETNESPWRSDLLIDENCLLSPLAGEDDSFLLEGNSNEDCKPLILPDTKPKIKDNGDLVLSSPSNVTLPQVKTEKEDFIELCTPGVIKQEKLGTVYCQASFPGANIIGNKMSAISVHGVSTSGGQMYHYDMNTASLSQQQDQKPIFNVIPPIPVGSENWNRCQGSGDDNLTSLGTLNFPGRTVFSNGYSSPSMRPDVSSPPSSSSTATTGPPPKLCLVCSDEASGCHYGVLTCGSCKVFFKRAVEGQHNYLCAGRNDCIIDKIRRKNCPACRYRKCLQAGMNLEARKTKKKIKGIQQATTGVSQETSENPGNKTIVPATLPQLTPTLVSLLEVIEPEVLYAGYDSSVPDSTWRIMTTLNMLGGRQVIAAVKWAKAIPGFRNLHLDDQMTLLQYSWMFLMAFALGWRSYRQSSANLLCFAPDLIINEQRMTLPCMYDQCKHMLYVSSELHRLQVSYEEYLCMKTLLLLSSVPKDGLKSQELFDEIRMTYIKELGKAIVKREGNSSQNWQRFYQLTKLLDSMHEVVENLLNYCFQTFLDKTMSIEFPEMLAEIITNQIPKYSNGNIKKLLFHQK
# How it was run: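 GR-bla HeLa cells (beta-lactamase reporter under glucocorticoid response element) were plated 4 h at 37 C/5% CO2, given compounds in DMSO, and incubated 18 h at 37 C. LiveBLAzer B/G FRET substrate was added for 2 h at room temperature, then fluorescence intensity read.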
# [5] = molecular target: Glucocorticoid receptor (Homo sapiens) (UniProt P04150); assay: qHTS assay to identify small molecule antagonists of the glucocorticoid receptor (GR) signaling pathway (AID 720692; active means well fitted inhibition curve with a large enough effect in the signal ratio in the repeat runs, not every such curve was filed as active; inconclusive means weak or mixed curves, or effect the other way; inactive means no such curve, though single readings can be large or run the other way; the % refers to the signal ratio; further: potency means the concentration at half of the fitted maximal effect; on activity change, negative = inhibition: on the % scale 0 is the no-effect control and ±100 the full control effect); conditions: GR-bla HeLa, beta-lactamase FRET ratio, dexamethasone-stimulated, 18 h; activity change, negative = inhibition: at 58.5 µM (top of the series) unless noted
# How it was run: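 GR-bla HeLa cells (beta-lactamase reporter under glucocorticoid response element) were pre-plated 4 h at 37 C, treated with compounds plus 5 nM dexamethasone (final) for 18 h, then read by LiveBLAzer B/G FRET fluorescence after 2 h.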
# [6] = qHTS assay to identify small molecule antagonists of the glucocorticoid receptor (GR) signaling pathway - cell viability counter screen (AID 720693); conditions: GR-bla HeLa viability, CellTiter-Glo luminescence, 18 h, with 5 nM dexamethasone present; viability change, negative = cytotoxic: at 58.5 µM (top of the series); further: potency means the concentration at half of the fitted maximal effect; nearly all actives have a fitted effect of over 55% in size
# [7] = qHTS assay for identifying genotoxic compounds that show differential cytotoxicity against isogenic chicken DT40 cell lines with known DNA damage response pathways - wild type cell line (AID 743012); conditions: DT40 wild type chicken cells viability, CellTiter-Glo, 40 h; activity change, negative = cytotoxicity: at 68.4 µM (top of the series); further: potency means the concentration at half of the fitted maximal effect; nearly all actives have a fitted effect of over 60% in size
# How it was run: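 Parental DNA repair-proficient DT40 cells, 300 per well, were pre-incubated ~0.5 h at 37 C/5% CO2, pin-dosed with compounds in DMSO, then incubated 40 h. Viability was read as CellTiter-Glo luminescence after 30 min at room temperature.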
# [8] = qHTS assay to test for compound auto fluorescence at 535 nm (green) in HEK293 cells (AID 720680); further: on the % scale 0 is the no-effect control and ±100 the full control effect
# [9] = qHTS assay for small molecules that induce genotoxicity in human embryonic kidney cells expressing luciferase-tagged ATAD5 - cell viability (AID 651634; calls by dose curve; further: on the % scale 0 is the no-effect control and ±100 the full control effect; nearly all actives have a fitted effect of over 25% in size)
# How it was run: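 HEK293T cells expressing luciferase-tagged ATAD5 were exposed to compound or DMSO for 15.5 hr at 37C, 5% CO2. Viability was then read as live-cell protease activity by CellTiter-Fluor fluorescence after 30 min at 37C.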
# [10] = qHTS assay to test for compound auto fluorescence at 460 nm (blue) in HEK293 cells (AID 720678); conditions: blue autofluorescence 405/460 nm; further: potency means the concentration at half of the fitted maximal effect
# How it was run: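 HEK293 cells (2,000 per well, medium with 10% dialyzed FBS) attached for 4-5 hr at 37C, then received compound and stood overnight at 37C, 5% CO2. Blue fluorescence was read at Ex/Em 405/460 nm and expressed relative to triamterene.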
# [11] = qHTS assay to test for compound auto fluorescence at 460 nm (blue) in HepG2 cell free culture (AID 720685); conditions: Cell-free culture medium, blue autofluorescence 405/460 nm; further: potency means the concentration at half of the fitted maximal effect
# How it was run: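 Compound (23 nL) or DMSO pinned into cell-free MEM with 10% FBS; blue fluorescence read at 405/460 nm excitation/emission, expressed as auto-fluorescence equivalency to triamterene.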
# Tags describe the fitted curve by direction and shape or compound fluorescence and quenching.
compound,measurement,setting,value
O=C1c2c(O)ccc([N+](=O)[O-])c2C(=O)c2c([N+](=O)[O-])ccc(O)c21,Potency,[1],"inconclusive: 9.6 µM [cytotoxic, full curve]"
same,Potency,[2],active: 30.4 µM
same,Potency,[3],active: 0.054 µM
same,Potency,[4],"inconclusive: 4.32 µM [cytotoxic, full curve]"
same,Potency,[5],inconclusive: 9.68 µM [cytotoxic]
same,Potency,[6],active: 8.63 µM
Cc1cc(O)c(C(C)C)cc1Cl,Potency,[1],inconclusive: 61.1 µM [cytotoxic]
same,Potency,[2],"inconclusive: 54.5 µM [cytotoxic, partial curve]"
same,Potency,[3],inactive and active: 4.33 µM
same,"activity change, negative = inhibition",[5],inconclusive: 12.2% and inconclusive: 0%
same,Potency,[7],"inconclusive: 68.6 µM [cytotoxic, single point]"
CCCCCCCCCCCCCCCCCC[N+](C)(C)Cc1ccccc1,Potency,[1],"inconclusive: 21.9 µM [cytotoxic, full curve]"
same,Potency,[2],active: 69.2 µM
same,Potency,[8],inactive
same,Potency,[4],"inconclusive: 24.8 µM [cytotoxic, full curve]"
same,Potency,[5],"inconclusive: 24.8 µM [cytotoxic, full curve]"
same,Potency,[6],active: 19.7 µM
same,Potency,[7],active: 0.978 µM
CC1=C(/C=C/C(C)=C/C=C/C(C)=C/C=O)C(C)(C)CCC1,Potency,[1],"inconclusive: 27.1 µM [cytotoxic, partial curve]"
same,Potency,[2],"inconclusive: 60.8 µM [cytotoxic, single point]"
same,Potency,[3],active: 15.3 µM
same,Potency,[4],"inconclusive: 15.4 µM [cytotoxic, full curve]"
same,Potency,[5],"inconclusive: 43.4 µM [cytotoxic, partial curve]"
CCCCCCCCCCCCN1CCCC1=O,Potency,[1],inconclusive: 68.6 µM [cytotoxic]
same,Potency,[9],inactive
same,Potency,[4],inconclusive: 54.9 µM [cytotoxic]
same,Potency,[5],inconclusive: 54.9 µM [cytotoxic]
same,Potency,[6],active: 43.6 µM
same,Potency,[7],active: 24.3 µM
CCCCCCCCCCCCN(CCO)CCO,Potency,[1],"inconclusive: 54.3 µM [cytotoxic, partial curve]"
same,Potency,[2],"inconclusive: 68.3 µM [cytotoxic, single point]"
same,Potency,[3],"inconclusive: 7.66 µM [activator, partial curve]"
same,Potency,[4],"inconclusive: 38.7 µM [falling, partial curve]"
same,Potency,[5],"inconclusive: 61.4 µM [cytotoxic, single point]"
same,Potency,[6],active: 34.5 µM
same,Potency,[7],active: 0.86 µM
CCCC(=O)c1cc(O)c(O)cc1O,Potency,[1],active: 68.6 µM
same,Potency,[2],"inconclusive: 48.6 µM [cytotoxic, partial curve, poor fit]"
same,Potency,[3],active: 5.45 µM
same,"activity change, negative = inhibition",[5],inconclusive: -22.5%
same,Potency,[6],"inconclusive: 43.6 µM [rising, partial curve, poor fit]"
Cc1cc(O)c(C(C)(C)C)cc1Sc1cc(C(C)(C)C)c(O)cc1C,Potency,[1],"inconclusive: 10.8 µM [cytotoxic, full curve]"
same,Potency,[2],active: 61 µM
same,Potency,[3],active: 0.768 µM
same,Potency,[4],"inconclusive: 10.9 µM [cytotoxic, full curve]"
same,Potency,[5],"inconclusive: 19.5 µM [cytotoxic, full curve]"
Cc1oc(-c2ccccc2)nc1CCOc1ccc(C[C@H](Nc2ccccc2C(=O)c2ccccc2)C(=O)O)cc1,Potency,[1],inconclusive: 17.2 µM [cytotoxic]
same,Potency,[2],"inconclusive: 68.6 µM [cytotoxic, partial curve, poor fit]"
same,Potency,[3],active: 61.1 µM
same,Potency,[4],"inconclusive: 38.9 µM [cytotoxic, partial curve]"
same,Potency,[5],"inconclusive: 61.6 µM [cytotoxic, single point]"
same,Potency,[7],"inconclusive: 68.6 µM [cytotoxic, single point]"
O=C(Nc1ccc(Cl)cc1)Nc1ccc(Cl)c(C(F)(F)F)c1,Potency,[1],active: 16.8 µM
same,Potency,[2],active: 1.5 µM
same,Potency,[3],active: 0.596 µM
same,Potency,[4],inconclusive: 23.9 µM [cytotoxic]
same,Potency,[5],"inconclusive: 6.74 µM [cytotoxic, partial curve]"
same,Potency,[6],active: 21.3 µM
Cc1ccc2nc(-c3ccc(N)cc3)sc2c1S(=O)(=O)O,Potency,[1],inconclusive: 30.2 µM [activator]
same,Potency,[2],"inconclusive: 13.5 µM [cytotoxic, partial curve, poor fit]"
same,Potency,[10],"inconclusive: 20 µM [fluorescent, single point]"
same,Potency,[11],active: 25.1 µM [fluorescent]
same,Potency,[7],"inconclusive: 0.0954 µM [rising, full curve, poor fit]"
CC(C)(c1ccccc1)c1ccccc1,Potency,[1],"inconclusive: 0.016 µM [rising, full curve, poor fit]"
same,Potency,[3],"inconclusive: 28.5 µM [inhibitor, partial curve, poor fit]"
N/C(=N\N=C\c1ccc(Cl)cc1)N/N=C/c1ccc(Cl)cc1,Potency,[1],active: 26.6 µM
same,Potency,[3],"inconclusive: 6.68 µM [activator, single point]"
Clc1ccc2n[nH]nc2c1,Potency,[1],"inconclusive: 54.5 µM [falling, partial curve, poor fit]"
same,Potency,[3],"inconclusive: 68.6 µM [inhibitor, partial curve, poor fit]"
same,"activity change, negative = inhibition",[5],inconclusive: 32.2%
C=CC(=O)OCC(O)COc1ccccc1 (stereo not drawn),Potency,[1],inconclusive: 61.1 µM [activator]
same,"ratio activity, negative = MMP loss",[3],inconclusive: -33.4%
same,Potency,[4],"inconclusive: 24.5 µM [falling, full curve]"
same,Potency,[5],"inconclusive: 49 µM [cytotoxic, partial curve]"
same,Potency,[6],active: 38.9 µM
CC1CCCNC1 (stereo not drawn),Potency,[1],inactive
same,"ratio activity, negative = MMP loss",[3],inconclusive: 11.4%
C=C1C[C@H]2[C@@H]3C=C(C)C4=CC(=O)CC[C@]4(C)[C@H]3CC[C@]2(C)[C@@]1(OC(C)=O)C(C)=O,Potency,[1],inactive
same,Potency,[3],"inconclusive: 6.68 µM [activator, full curve] and inactive"
same,Potency,[4],active: 120 nM [inconclusive] and active: 14.1 nM
same,Potency,[5],"inconclusive: 14.1 µM [inhibitor, partial curve]"
CCN=C1C=CC(=C(c2ccc(N(CC)CC)cc2)c2ccc(N(CC)CC)cc2)c2ccccc21,Potency,[1],"inconclusive: 19.2 µM [cytotoxic, partial curve]"
same,Potency,[2],"inconclusive: 0.0483 µM [cytotoxic, full curve, poor fit]"
same,Potency,[4],"inconclusive: 21.7 µM [cytotoxic, partial curve]"
same,Potency,[5],"inconclusive: 43.4 µM [cytotoxic, partial curve]"
O=C(Oc1cccc2cccnc12)c1ccccc1,Potency,[1],inconclusive: 26.6 µM [activator]
same,Potency,[3],"inconclusive: 6.68 µM [inhibitor, partial curve]"
CCCC(c1cc(C(C)(C)C)c(O)cc1C)c1cc(C(C)(C)C)c(O)cc1C,Potency,[1],"inconclusive: 13.9 µM [cytotoxic, full curve]"
same,Potency,[2],active: 39 µM
same,Potency,[5],"inconclusive: 12.5 µM [cytotoxic, full curve]"
same,Potency,[6],active: 11.1 µM
same,Potency,[7],active: 12.3 µM
CCCN(CCC)C(=O)C(CCC(=O)OCCCN1CCN(CCOC(=O)Cc2c(C)n(C(=O)c3ccc(Cl)cc3)c3ccc(OC)cc23)CC1)NC(=O)c1ccccc1 (stereo not drawn),Potency,[1],"inconclusive: 29.8 µM [falling, partial curve]"
same,Potency,[3],"inconclusive: 2.11 µM [activator, full curve]"
same,Potency,[5],"inconclusive: 10.7 µM [inhibitor, partial curve]"
CCCCCCCCCCCCCOP(=O)(O)O,Potency,[1],"inconclusive: 54.5 µM [cytotoxic, partial curve]"
same,Potency,[3],"inconclusive: 48.6 µM [inhibitor, partial curve]"
Oc1ccc(C2(c3ccc(O)cc3)CC3CC2C2CCCC32)cc1 (stereo not drawn),Potency,[1],"inconclusive: 65.9 µM [cytotoxic, single point]"
same,Potency,[3],active: 33 µM
same,Potency,[5],active: 18.7 µM
Cc1cc(O)c(C(C)(C)C)cc1C(C)(C)C,Potency,[1],inconclusive: 8.63 µM [cytotoxic]
same,Potency,[2],active: 15.4 µM
same,Potency,[5],"inconclusive: 49 µM [cytotoxic, partial curve]"
same,Potency,[6],active: 43.6 µM
CCc1cc(Cc2cc(CC)cc(C(C)(C)C)c2O)c(O)c(C(C)(C)C)c1,Potency,[1],"inconclusive: 12.2 µM [cytotoxic, full curve]"
same,Potency,[3],active: 0.864 µM
same,Potency,[4],"inconclusive: 9.77 µM [cytotoxic, full curve]"
same,Potency,[5],"inconclusive: 21.9 µM [cytotoxic, full curve]"
same,Potency,[6],active: 11 µM
CC[C@]12CCCN3CCc4c(n(c5ccccc45)[C@@](O)(C(=O)OC)C1)[C@@H]32,Potency,[1],"inconclusive: 2.98 µM [fluorescent, full curve] and inconclusive: 3.44 µM [fluorescent, full curve]"
same,"ratio activity, negative = MMP loss",[3],inconclusive: 27.9% and inconclusive: 34.9%
same,"activity change, negative = inhibition",[5],inconclusive: 8.58%
O=C(Cl)c1c(Cl)c(Cl)c(C(=O)Cl)c(Cl)c1Cl,Potency,[1],"inconclusive: 68.6 µM [falling, single point]"
same,Potency,[3],inactive
same,Potency,[5],"inconclusive: 24.5 µM [activator, full curve]"
C/C=C/C(=O)Oc1c(CCCCCC(C)C)cc([N+](=O)[O-])cc1[N+](=O)[O-],Potency,[1],active: 0.864 µM
same,Potency,[2],active: 3.06 µM
same,Potency,[4],inconclusive: 21.9 µM [cytotoxic]
same,Potency,[5],active: 3.09 µM
same,Potency,[6],"inconclusive: 19.5 µM [cytotoxic, partial curve]"
Cc1c(C)n(Cc2ccccc2)c2ccc(C(=O)OCCN(C)C)cc12,Potency,[1],"inconclusive: 33.5 µM [activator, single point]"
same,Potency,[3],"inconclusive: 1.68 µM [activator, partial curve]"
same,"activity change, negative = inhibition",[5],inconclusive: -34.9%
